Data published in PubChem BioAssay AID2147 (National Center for Advancing Translational Sciences (NCATS), 2009).
Hit rate of the full screen: of about 230,000 compounds, about 3,600 (1.6%) were called active. The inconclusive results got no clear call from the source; some entries with a clear call stand among them for comparison. The call rests on the fitted dose curve; in most records, active means well fitted inhibition curve with a large enough effect (not every such curve was filed as active); inconclusive means small, poorly fitted or top-dose-only effect, or another doubt; inactive means no such curve, though single readings can be large or run the other way. A potency beside an inconclusive call is a rough fit, not a confirmed value.

Biological target: Lysine-specific demethylase 4E (Homo sapiens) (UniProt B2RXH2)
Experiment: qHTS Assay for Inhibitors of Human Jumonji Domain Containing 2E (JMJD2E)
Details: JMJD2E catalytic domain, FDH-coupled NADH fluorescence (FDH is formaldehyde dehydrogenase); series mostly up to 57.1 µM; activity change, negative = inhibition: at the top concentration
Further: nearly all actives have a fitted effect of over 50% in size.
Potency means the concentration at half of the fitted maximal effect; tags describe the fitted curve by direction and shape.
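Wherever activity change, negative = inhibition is given: 0% = wells with enzyme and -100% = buffer wells without enzyme.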

Chain of UniProt B2RXH2 (B2RXH2 whole entry, looked up, the tested form may be a part): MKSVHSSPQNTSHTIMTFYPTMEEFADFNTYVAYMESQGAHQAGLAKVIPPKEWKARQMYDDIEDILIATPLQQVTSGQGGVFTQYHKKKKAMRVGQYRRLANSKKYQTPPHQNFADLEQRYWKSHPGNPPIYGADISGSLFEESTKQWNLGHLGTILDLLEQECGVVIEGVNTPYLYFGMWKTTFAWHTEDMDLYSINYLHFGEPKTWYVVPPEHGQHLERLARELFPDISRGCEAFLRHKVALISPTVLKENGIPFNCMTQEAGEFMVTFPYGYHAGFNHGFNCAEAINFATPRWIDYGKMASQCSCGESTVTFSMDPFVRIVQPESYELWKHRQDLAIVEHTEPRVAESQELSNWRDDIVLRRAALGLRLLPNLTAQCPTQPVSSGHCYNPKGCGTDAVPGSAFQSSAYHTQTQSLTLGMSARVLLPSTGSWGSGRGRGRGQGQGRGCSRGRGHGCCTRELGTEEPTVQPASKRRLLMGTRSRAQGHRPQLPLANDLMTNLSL

SMILES | activity change, negative = inhibition | Potency
CC1=C(C(=O)Nc2ccccc2)C(c2ccncc2)C(C#N)=C(SCC(=O)NC2CC2)N1 (stereo not drawn) | inactive: 3.94% | –
COc1cccc(C2=NO[C@@H]3C(=O)N(Cc4ccccc4)C(=O)[C@H]23)c1OC | inactive: -3.61% | –
O=[N+]([O-])c1cccc(N=Cc2sc3ccccc3c2O)c1 | – | active: 28.2 µM
COc1ccc(C(=O)CSC#N)cc1OC | inactive: 11.2% | –
COc1ccc(/C(N)=N/OC(=O)Cc2cccs2)cc1OC | inactive: -0.0564% | –
COc1ccc(-c2nn(C)c(=O)c3ccccc23)cc1CNC(=O)C1CCCCC1 | – | inconclusive: 25.1 µM [inhibitor, partial curve]
O=C(O)COc1c(Cl)cc(/C=C2\NC(=O)NC2=O)cc1Br | inactive: -17.9% | –
CCOC(=O)c1ccc(NC(=O)CSc2nc(NC(=O)c3ccccc3)c3c(C)c(C)oc3n2)cc1 | – | inconclusive: 31.6 µM [inhibitor, partial curve]
COc1ccccc1C(=O)CSc1ccccn1 | inactive: 2.83% | –
NC(=O)C1=C[C@H](c2csc3ccccc23)C[C@H](OCCCCO)O1 | – | inconclusive: 17.8 µM [inhibitor, single point]
Nc1nc(Nc2ccc(Cl)cc2Cl)nc(C(F)(F)F)n1 | – | inconclusive: 35.5 µM [inhibitor, single point]
Cc1cc(Cl)ccc1NNC(=O)c1c(C)noc1C | inactive: -8.54% | –
COc1ccc2c(c1)-c1nc(N)sc1CC2 | – | inconclusive: 35.5 µM [inhibitor, single point]
Cc1c(Cc2ccccc2)c(=O)oc2c(O)c(O)ccc12 | – | active: 3.16 µM
O=C(C[n+]1cccc(NC(=O)c2ccccc2)c1)c1ccccc1 | inactive: 0.0647% | –
COc1cc(/C=N\n2cnnc2)ccc1OCC(=O)Nc1ccc(C)cc1 | – | inconclusive: 35.5 µM [inhibitor, single point]
Cc1cc(C)n(CCCN2C(=O)c3cccc4cccc(c34)C2=O)n1 | – | inconclusive: 22.4 µM [inhibitor, single point]
CCOC(=O)C1=C(C)NC(SCC(=O)OC)=C(C#N)C1c1ccc(C(=O)OC)cc1 (stereo not drawn) | – | inconclusive: 39.8 µM [inhibitor, single point]
CCC(=O)N1CCN(c2ccc(NC(=O)c3ccc4c(c3)OCCO4)cc2)CC1 | – | inconclusive: 28.2 µM [inhibitor, single point]
O=C1CSC(c2cn(-c3ccccc3)nc2-c2cc3ccccc3oc2=O)N1Cc1cccnc1 (stereo not drawn) | – | inconclusive: 28.2 µM [inhibitor, partial curve]
CC(=O)c1cccc(S(=O)(=O)N(Cc2cc3cc4c(cc3[nH]c2=O)OCCO4)CC2CCCO2)c1 (stereo not drawn) | – | inconclusive: 35.5 µM [inhibitor, single point]
CCOC(=O)c1sc(NC(=O)/C=C/c2cnn(CC)c2C)c(C(=O)OCC)c1C | – | inconclusive: 10 µM [inhibitor, partial curve]
O=C(C(c1ccccc1)c1ccccc1)N1CCN(c2ccccn2)CC1 | – | inconclusive: 28.2 µM [inhibitor, single point]
O=C(c1ccc(N2CCCCC2)c([N+](=O)[O-])c1)N1CCN(c2ccccn2)CC1 | inactive: 3.75% | –
CSCCC(NC(=O)OCc1ccccc1)C(=O)O (stereo not drawn) | – | inconclusive: 39.8 µM [inhibitor, single point]

SMILES | activity change, negative = inhibition | Potency
CCOc1ccc(C2C(C(C)=O)=C(O)C(=O)N2CCc2c[nH]c3ccccc23)cc1 (stereo not drawn) | – | inconclusive: 31.6 µM [inhibitor, single point]
O=C(O)c1ccc(Nc2ncnc3scc(-c4ccccc4)c23)cc1 | inactive: 4.36% | –
Cc1ccc(-c2cc(C(=O)OCC(=O)N(C)C3CCS(=O)(=O)C3)c3ccccc3n2)o1 (stereo not drawn) | – | inconclusive: 28.2 µM [inhibitor, partial curve]
COc1cc2c(=O)n(CC3CCCO3)c(=O)n(CC(=O)Nc3ccc(F)cc3F)c2cc1OC (stereo not drawn) | – | inconclusive: 25.1 µM [inhibitor, partial curve]
CC(C(=O)c1c[nH]c(C(N)=O)c1)c1ncc(C(F)(F)F)cc1Cl (stereo not drawn) | inactive: -6.14% | –
COc1ccc(OC)c2[nH]c(=O)c(CCNS(=O)(=O)c3ccc(C)cc3)cc12 | – | inconclusive: 20 µM [inhibitor, partial curve]
CC(OC(=O)c1ccc(Cl)c(S(=O)(=O)Nc2ccc(F)cc2)c1)C(=O)NC(N)=O (stereo not drawn) | inactive: 0.437% | –
O=[N+]([O-])c1c(NCCCO)cc(Sc2nc3ccccc3s2)c2nonc12 | inactive: -2.2% | –
S=C(Nc1ccc2nc(-c3ccccn3)c(-c3ccccn3)nc2c1)N1CCCCCC1 | – | inconclusive: 35.5 µM [inhibitor, partial curve]
O=C(c1cc(C(=O)c2ccco2)cc(C(=O)c2ccco2)c1)c1ccco1 | inactive: -13.4% | –
C=CCc1cccc(/C=N/NC(=O)CNc2ccccc2OC)c1O | – | inconclusive: 25.1 µM [inhibitor, single point]
O=C(NCCCn1ccnc1)c1cc2ccccc2oc1=O | – | inconclusive: 25.1 µM [inhibitor, partial curve]
CCOC(=O)C1(Cc2cccc(OC)c2)CCN(C/C=C/c2ccccc2)CC1 | – | inconclusive: 11.2 µM [inhibitor, single point]
CCCCNCC(=O)Nc1sc(C)c(C)c1C(=O)OCC | inactive: -2.63% | –
Cc1cc(C(=O)OCC(=O)NCCC(C)C)c2ccccc2n1 | – | inconclusive: 35.5 µM [inhibitor, single point]
CC(C)Cn1c2ccccc2c2cc(C(=O)O)ccc21 | – | inconclusive: 39.8 µM [inhibitor, single point]
CCc1c(-c2ccccc2)nc2sc3c(c2c1N)CCCC3 | – | inconclusive: 31.6 µM [inhibitor, single point]
Oc1ccc(C2CNCc3sccc32)cc1O (stereo not drawn) | – | active: 25.1 µM
Cn1c(=O)c2ncn(CC(=O)Nc3nc(-c4ccc(Cl)cc4)cs3)c2n(C)c1=O | inactive: -1.2% | –
O=C(Cc1ccc([N+](=O)[O-])cc1)NCc1ccncc1 | inactive: -4.43% | –
Cc1ccc(C(=O)NCc2ccc(Cl)cc2)o1 | inactive: -2.35% | –
COc1ccc(OC)c(NC(=O)CSc2ncccc2C(=O)O)c1 | inactive: -11.4% | –
COc1ccc2[nH]c(=O)cc(C(=O)O)c2c1 | – | inconclusive: 31.6 µM [inhibitor, partial curve]
COc1cc(C(=O)Nc2ccc(Oc3ncnc4sc(-c5ccccc5)cc34)cc2)cc(OC)c1OC | – | inconclusive: 5.62 µM [inhibitor, single point]
COc1cccc(/C=N/Nc2nccnc2Cl)c1O | – | inconclusive: 39.8 µM [inhibitor, single point]

SMILES | activity change, negative = inhibition | Potency
O=C1C(Nc2cccc(O)c2)=C(N2CCCCC2)C(=O)c2ccccc21 | inactive: 13.3% | –
Cn1c2c(c(=O)c3ccccc31)CCC(C)(C)O2 | inactive: -16.8% | –
COC(=O)c1sccc1N/C=C(\C#N)S(=O)(=O)C(C)(C)C | inactive: 2.06% | –
Cc1sc(NC(=O)c2cccs2)c(C(=O)OC(C)C)c1C | – | inconclusive: 25.1 µM [inhibitor, partial curve]
COc1ccc(CC2(C)OC(c3ccc(C)cc3)=NN2C(C)=O)cc1 (stereo not drawn) | – | inconclusive: 14.1 µM [inhibitor, partial curve]
CCc1n[nH]c(=S)n1/N=C/c1ccc(N(C)c2ccccc2)cc1 | – | inconclusive: 39.8 µM [inhibitor, single point]
Nc1nc(C2C(=O)CCCC2=O)cs1 | – | inconclusive: 39.8 µM [inhibitor, single point]
CC(=O)c1c(C)nc(-c2ccccc2)nc1N | – | inconclusive: 6.31 µM [inhibitor, single point]
Cc1nn(-c2ccccc2)c(C)c1C(=O)OCC(=O)NCc1ccco1 | – | inconclusive: 39.8 µM [inhibitor, single point]
CC(=O)N(C1=C(Cl)C(=O)c2ccccc2C1=O)C1CCCCC1 | – | inconclusive: 0.631 µM [inhibitor, full curve]
CCC(=O)N1N=C(c2ccc(NS(=O)(=O)CC)cc2)CC1c1ccc(C)cc1 (stereo not drawn) | – | inconclusive: 28.2 µM [inhibitor, partial curve]
COc1ccccc1C1=NOC(COc2ccc3c(C)cc(=O)oc3c2)C1 (stereo not drawn) | – | inconclusive: 22.4 µM [inhibitor, partial curve]
CCOc1cc(N2CCOCC2)c(OCC)cc1NC(=O)c1ccc2ccccc2n1 | inactive: -17.2% | –
Cc1ccc(Nc2nc(-c3ccncc3)nc3ccccc23)cc1 | – | inconclusive: 7.08 µM [inhibitor, single point]
O=C(Nc1cccn(Cc2c(Cl)cccc2Cl)c1=O)c1ccccc1Cl | – | inconclusive: 35.5 µM [inhibitor, single point]
Cc1cc(NC(=O)CSc2ccc3nnc(CCNS(=O)(=O)c4ccccc4)n3n2)no1 | – | inconclusive: 35.5 µM [inhibitor, single point]
COc1ccc(C2N(c3ccc(OC)cc3)C(=O)C3CCCN32)cc1 (stereo not drawn) | inactive: 1.97% | –
CC(C)Cc1ccc(S(=O)(=O)Nc2ccccn2)cc1 | – | inconclusive: 25.1 µM [inhibitor, single point]
N#Cc1c(-c2cccc(Br)c2)cc(-c2ccco2)[nH]c1=O | – | inconclusive: 10 µM [inhibitor, partial curve]
Cc1nc(NCC2CC2)c2nnn(Cc3ccccc3)c2n1 | – | inconclusive: 39.8 µM [inhibitor, single point]
Cc1ccc2nc(NCCCO)nc(-c3ccccc3)c2c1 | – | inconclusive: 31.6 µM [inhibitor, partial curve]
Cc1cc(C=O)c(C)n1-c1ccc(Oc2ccc([N+](=O)[O-])cn2)cc1 | inactive: 5.59% | –
CC(C)CCNC(=O)CN(Cc1ccco1)C(=O)c1snc(C(N)=O)c1N | – | inconclusive: 31.6 µM [inhibitor, partial curve]
